Measured values: the supplement of paper PMC8728848
This is one part of the list.

Tests used:
Experiment in all cases: glycan array binding signal (z-score within array); higher = stronger binding
Conditions in all cases: glycan notation: IUPAC condensed, linker removed
[1] = biological target: Man(a1-3)[Man(a1-6)]Man(a1-6)[Man(a1-3)]Man
Outline: (§1)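 Glycan array binding is given as a within-array Z-score, which can be read as non-binding when negative. The arrays, 3228 of them, came from the Consortium for Functional Glycomics database and were retained only where the protein sequence was available. Z-scores were averaged across arrays of the same protein sequence at different concentrations or buffers and across linkers.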

[2] = biological target: Man(a1-3)[Man(a1-6)]Man(a1-6)[Man(a1-3)]Man(b1-4)GlcNAc(b1-4)GlcNAc
Outline: as §1

[3] = biological target: Man(a1-3)[Man(a1-6)]Man(b1-4)GlcNAc(b1-4)GlcNAc
Outline: as §1

[4] = biological target: Man(a1-3)[Man(a1-6)]Man(b1-4)GlcNAc(b1-4)[Fuc(a1-6)]GlcNAc
Outline: as §1

[5] = biological target: Man(a1-6)Man
Outline: as §1

[6] = biological target: Man(b1-4)GlcNAc
Outline: as §1

[7] = biological target: MurNAc(b1-4)GlcNAc
Outline: as §1

[8] = biological target: Neu5Ac(a2-3)Gal
Outline: as §1

[9] = biological target: Neu5Ac(a2-3)Gal(b1-3)GalNAc
Outline: as §1

[10] = biological target: Neu5Ac(a2-3)Gal(b1-3)GalNAc(b1-3)Gal(a1-4)Gal(b1-4)Glc
Outline: as §1

[11] = biological target: Neu5Ac(a2-3)Gal(b1-3)GalNAc(b1-4)[Neu5Ac(a2-3)]Gal(b1-4)Glc
Outline: as §1

[12] = biological target: Neu5Ac(a2-3)Gal(b1-3)GalNAc(b1-4)[Neu5Ac(a2-8)Neu5Ac(a2-3)]Gal(b1-4)Glc
Outline: as §1

[13] = biological target: Neu5Ac(a2-3)Gal(b1-3)GalNAc6S
Outline: as §1

[14] = biological target: Neu5Ac(a2-3)Gal(b1-3)GlcNAc
Outline: as §1

[15] = biological target: Neu5Ac(a2-3)Gal(b1-3)GlcNAc(b1-2)Man
Outline: as §1

[16] = biological target: Neu5Ac(a2-3)Gal(b1-3)GlcNAc(b1-2)Man(a1-3)[GlcNAc(b1-4)][Neu5Ac(a2-3)Gal(b1-3)GlcNAc(b1-2)Man(a1-6)]Man(b1-4)GlcNAc(b1-4)GlcNAc
Outline: as §1

[17] = biological target: Neu5Ac(a2-3)Gal(b1-3)GlcNAc(b1-2)Man(a1-3)[Neu5Ac(a2-3)Gal(b1-3)GlcNAc(b1-2)Man(a1-6)]Man(b1-4)GlcNAc(b1-4)GlcNAc
Outline: as §1

[18] = biological target: Neu5Ac(a2-3)Gal(b1-3)GlcNAc(b1-3)Gal(b1-3)GlcNAc
Outline: as §1

[19] = biological target: Neu5Ac(a2-3)Gal(b1-3)GlcNAc(b1-3)Gal(b1-4)GlcNAc
Outline: as §1

[20] = biological target: Neu5Ac(a2-3)Gal(b1-3)GlcNAc(b1-3)GalNAc
Outline: as §1

[21] = biological target: Neu5Ac(a2-3)Gal(b1-3)GlcNAc(b1-4)Gal(b1-4)Glc
Outline: as §1

[22] = biological target: Neu5Ac(a2-3)Gal(b1-3)GlcNAc(b1-6)GalNAc
Outline: as §1

[23] = biological target: Neu5Ac(a2-3)Gal(b1-3)GlcNAc6S
Outline: as §1

[24] = biological target: Neu5Ac(a2-3)Gal(b1-3)[Fuc(a1-4)]GlcNAc
Outline: as §1

[25] = biological target: Neu5Ac(a2-3)Gal(b1-3)[Fuc(a1-4)]GlcNAc(b1-3)Gal(b1-3)[Fuc(a1-4)]GlcNAc
Outline: as §1

[26] = biological target: Neu5Ac(a2-3)Gal(b1-3)[Fuc(a1-4)]GlcNAc(b1-3)Gal(b1-4)[Fuc(a1-3)]GlcNAc
Outline: as §1

[27] = biological target: Neu5Ac(a2-3)Gal(b1-3)[GlcNAc(b1-6)]GalNAc
Outline: as §1

[28] = biological target: Neu5Ac(a2-3)Gal(b1-3)[Neu5Ac(a2-6)]GalNAc
Outline: as §1

[29] = biological target: Neu5Ac(a2-3)Gal(b1-3)[Neu5Ac(a2-6)]GlcNAc(b1-3)[Fuc(a1-3)[Gal(b1-4)]GlcNAc(b1-6)]Gal(b1-4)Glc
Outline: as §1

[30] = biological target: Neu5Ac(a2-3)Gal(b1-3)]Neu5Ac(a2-3)Gal(b1-4)]GlcNAc
Outline: as §1

[31] = biological target: Neu5Ac(a2-3)Gal(b1-4)Glc
Outline: as §1

[32] = biological target: Neu5Ac(a2-3)Gal(b1-4)GlcNAc
Outline: as §1

[33] = biological target: Neu5Ac(a2-3)Gal(b1-4)GlcNAc(b1-2)Man
Outline: as §1

[34] = biological target: Neu5Ac(a2-3)Gal(b1-4)GlcNAc(b1-2)Man(a1-3)[GlcNAc(b1-4)][Neu5Ac(a2-3)Gal(b1-4)GlcNAc(b1-2)Man(a1-6)]Man(b1-4)GlcNAc(b1-4)GlcNAc
Outline: as §1

[35] = biological target: Neu5Ac(a2-3)Gal(b1-4)GlcNAc(b1-2)Man(a1-3)[Neu5Ac(a2-3)Gal(b1-4)GlcNAc(b1-2)Man(a1-6)]Man(b1-4)GlcNAc(b1-4)GlcNAc
Outline: as §1

[36] = biological target: Neu5Ac(a2-3)Gal(b1-4)GlcNAc(b1-2)Man(a1-3)[Neu5Ac(a2-3)Gal(b1-4)GlcNAc(b1-2)Man(a1-6)]Man(b1-4)GlcNAc(b1-4)[Fuc(a1-6)]GlcNAc
Outline: as §1

[37] = biological target: Neu5Ac(a2-3)Gal(b1-4)GlcNAc(b1-2)Man(a1-3)[Neu5Ac(a2-6)Gal(b1-4)GlcNAc(b1-2)Man(a1-6)]Man(b1-4)GlcNAc(b1-4)GlcNAc
Outline: as §1

[38] = biological target: Neu5Ac(a2-3)Gal(b1-4)GlcNAc(b1-2)[Neu5Ac(a2-3)Gal(b1-4)GlcNAc(b1-4)]Man(a1-3)[GlcNAc(b1-4)][Neu5Ac(a2-3)Gal(b1-4)GlcNAc(b1-2)[Neu5Ac(a2-3)Gal(b1-4)GlcNAc(b1-6)]Man(a1-6)]Man(b1-4)GlcNAc(b1-4)GlcNAc
Outline: as §1

B1: PX9961T-pdi-555-33-555 (Parabacteroides distasonis) (protein)
chain: FDEETAFQSPTLVYVNTVASLYNNMFKIMGNDRHVYDLNTFSSDEAMLPCRIGDWEDGGLWQNIFLHRWGTMNDLTKNSWDFLYEQIGKCNQSVDKLQAFAEEQPDVEYFKVYLEEVRAVRAFFYYELLDLFARVPLVTSSTTPMSEVKQSERSVVFNFVRSELEEALPYLSDNRSNQKGEYYGRITKPVAYMILAKLALNAEVYADDNWTDGNRPAGKNIKFTVDGKEMNAWEATIAYVDKLEALGYKLQGNFSENFAVANETSVENIFTVPMDPVAYPDAKDYNLVRTRHYDHATAYGQSGWNGSCATVKAMNVFKFGTADEDPRCKLTYFTGEVTGPDGKTIYTEWDGQKVPLKYEPNAPKVYMDASDGLLVKTAGARMAKYEFDQNAQDGGNLHGNDCVIFRFADALLMKAEAKIRLGQNGDDEVNQVRNRVGAKPLQNVTLDTLLDERMLELAWEGVRRQDLIRFGKFTEATVDRYVGVKHFASSLDYQEDKTGYTTVFSIYADILSLNPNLTQNPGY
For B1, the “glycan array binding signal (z-score)” value [1] was -0.49, the “glycan array binding signal (z-score)” value [2] was -0.373 and the “glycan array binding signal (z-score)” value [3] was 0.087. The “glycan array binding signal (z-score)” value [4] was 0.127, the “glycan array binding signal (z-score)” value [5] was 0.167 and the “glycan array binding signal (z-score)” value [6] was -0.842. The “glycan array binding signal (z-score)” value [7] was -0.306, the “glycan array binding signal (z-score)” value [8] was -0.213 and the “glycan array binding signal (z-score)” value [9] was -0.041. The “glycan array binding signal (z-score)” value [10] was -0.742, the “glycan array binding signal (z-score)” value [11] was -0.112 and the “glycan array binding signal (z-score)” value [12] was -0.155. For the same binder, the “glycan array binding signal (z-score)” value [13] was -0.237, the “glycan array binding signal (z-score)” value [14] was -0.548 and the “glycan array binding signal (z-score)” value [15] was -0.451. The “glycan array binding signal (z-score)” value [16] was 0.166, the “glycan array binding signal (z-score)” value [17] was -0.023 and the “glycan array binding signal (z-score)” value [18] was -0.414. For the same binder, the “glycan array binding signal (z-score)” value [19] was -0.716, the “glycan array binding signal (z-score)” value [20] was 0.364 and the “glycan array binding signal (z-score)” value [21] was 0.232. The “glycan array binding signal (z-score)” value [22] was 0.149, the “glycan array binding signal (z-score)” value [23] was 0.118 and the “glycan array binding signal (z-score)” value [24] was -0.461. For the same binder, the “glycan array binding signal (z-score)” value [25] was -0.347, the “glycan array binding signal (z-score)” value [26] was -0.031 and the “glycan array binding signal (z-score)” value [27] was 0.051. The “glycan array binding signal (z-score)” value [28] was -0.194, the “glycan array binding signal (z-score)” value [29] was -0.614 and the “glycan array binding signal (z-score)” value [30] was -0.714. The “glycan array binding signal (z-score)” value [31] was -0.207, the “glycan array binding signal (z-score)” value [32] was -0.032 and the “glycan array binding signal (z-score)” value [33] was 0.548. For the same binder, the “glycan array binding signal (z-score)” value [34] was -0.376, the “glycan array binding signal (z-score)” value [35] was -0.299 and the “glycan array binding signal (z-score)” value [36] was 0.57. The “glycan array binding signal (z-score)” value [37] was -0.362 and the “glycan array binding signal (z-score)” value [38] was -0.127.
